Laboratory results as given in PMC3111228 (The Journal of neuroscience : the official journal of the …, 2011).

Target: recombinant CaM (calmodulin) (UniProt P0DP23)
Test: pull-down

- binding result: binds
B1: GST-mGluR5-Cprox with R892 exchanged (R892K) (domain or fragment)
chain: not shown
